Assay results published in the supplement of paper PMC3334620.
Over roughly 33,000 sequences, “E-score (-0.5 to 0.5)” has its median near -0.041; the highest 2% begin near 0.37. The list shows a part of the results.

target: T1, Ecm22 (UniProt Q05958); test: PBM E-score (8-mer binding enrichment) (E-score (-0.5 to 0.5)); higher = stronger / more preferred TF binding; most listed sequences are background and not binding sites; conditions: protein concentration: 200 nM; construct: GST-full length
T1 sequence: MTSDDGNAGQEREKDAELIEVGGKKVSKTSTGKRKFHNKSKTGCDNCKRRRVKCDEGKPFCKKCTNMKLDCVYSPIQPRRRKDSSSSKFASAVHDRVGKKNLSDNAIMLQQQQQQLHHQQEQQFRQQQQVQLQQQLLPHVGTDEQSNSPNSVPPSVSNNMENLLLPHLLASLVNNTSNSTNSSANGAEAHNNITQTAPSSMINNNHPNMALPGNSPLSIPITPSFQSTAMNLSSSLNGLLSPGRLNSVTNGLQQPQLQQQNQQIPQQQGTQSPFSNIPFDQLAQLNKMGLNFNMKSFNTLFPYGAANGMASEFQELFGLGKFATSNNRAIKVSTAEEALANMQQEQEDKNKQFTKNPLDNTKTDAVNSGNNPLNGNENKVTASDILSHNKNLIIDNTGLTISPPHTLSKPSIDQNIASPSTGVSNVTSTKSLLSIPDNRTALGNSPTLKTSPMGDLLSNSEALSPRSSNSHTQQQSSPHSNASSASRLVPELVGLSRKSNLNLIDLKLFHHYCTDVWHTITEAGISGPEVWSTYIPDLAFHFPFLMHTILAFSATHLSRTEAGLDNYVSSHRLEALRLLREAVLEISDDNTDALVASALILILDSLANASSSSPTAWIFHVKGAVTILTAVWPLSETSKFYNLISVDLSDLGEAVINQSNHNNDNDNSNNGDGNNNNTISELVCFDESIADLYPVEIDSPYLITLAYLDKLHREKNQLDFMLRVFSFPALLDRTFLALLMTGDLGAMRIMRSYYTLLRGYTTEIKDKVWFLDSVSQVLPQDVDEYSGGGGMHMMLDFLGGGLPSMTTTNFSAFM
Summary of the method: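 GST-tagged yeast TFs (full-length or DNA-binding domain) were made by PURExpress in vitro transcription/translation and applied at about 100-200 nM to universal all-10-mer Agilent arrays. The arrays were made double-stranded by primer extension, on fresh or once-stripped slides. Bound protein was detected with fluorescent anti-GST, and scans were normalised with masliner. Each ungapped eight-base word, pooled with its reverse complement, received an E-score (modified Wilcoxon-Mann-Whitney statistic) from the Universal PBM Analysis Suite.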

Sequence | PBM E-score
GACTTCGC | 0.232
CGCTGTTC | -0.014
CTGTTTGA | -0.0529
AATGTAGG | -0.269
AGTCCCTG | -0.206
CCCTAGAC | -0.275
AGTTTTAA | -0.0552
AGGCTACG | 0.164
ACCGAACG | 0.282
GCGCGAAA | -0.00591
GTAAAAAC | 0.174
GCTCGGAA | 0.225
CCTAAACG | 0.407
GCTCCCTA | -0.0796
CAAATCCC | -0.151
CTGTCCGA | 0.188
CATATCCA | -0.0799
AACAGGCT | -0.264
CACAAGAC | -0.267
ATGGATCA | -0.194
AAGCCTGG | -0.279
CCTGTGGC | -0.292
GCGCTAGA | -0.0147
TAACTCTA | -0.0706
CAGAACAC | -0.0867

Sequence | PBM E-score
AAGGTTCA | -0.0608
TGGCTTAA | 0.0285
TCGCTAGA | 0.0863
AAGAGTAT | -0.113
AGCACAGC | -0.0379
AGGCCGAC | -0.106
TTGGCCAA | -0.264
AGCGAGCA | 0.293
GTCGCCTA | -0.0445
CCACGGAC | -0.22
CGAGCCAA | 0.127
CTCGCTCC | 0.405
AAATCAAC | -0.088
ACACCAGG | -0.301
AGGTATTC | 0.145
AATACGCA | 0.0707
ACGCGGGC | 0.0621
GTGGGACA | -0.142
CAAGTCCC | -0.246
CACTGAAA | 0.00804
GACCGTAC | 0.362
ATGTCCAC | -0.23
ATCCTATA | 0.0709
CGATAATC | 0.0251
ACGTCACC | -0.0444

Sequence | PBM E-score
AGCGGGTG | -0.186
ACCTTCAC | -0.202
ATATTATC | 0.0725
GCAAGGGA | -0.0336
GATTACAC | 0.0245
AGTCGCTA | 0.109
CATAGCCA | -0.207
CTAGGCCC | -0.378
GCTGCACC | 0.0458
CGCATTAC | 0.179
ATCTCATA | -0.0896
AGAGCTTA | -0.112
CTACCATC | -0.0677
GAGGCCGC | -0.0873
AACTGTAA | -0.0233
CCCGGAAC | 0.0399
CGGGCTTA | 0.00518
ACCTCATC | -0.0924
CGGACCCG | 0.21
CGTAACTA | 0.152
AAAAGAGC | -0.205
AGTATATC | 0.122
ATGTAGGA | -0.213
ATCGACAT | 0.0673
CGGTTTTC | 0.259

Sequence | PBM E-score
CGTTCGGC | 0.147
GGCTACCC | -0.232
GGATCCGA | 0.0541
GACATGTC | -0.286
ATTATCTA | 0.0298
AAAAAACA | -0.0926
ACCCGGAC | -0.0639
GTTATGCA | -0.29
GAAGGCGA | -0.0853
ATCATACC | 0.00527
ATATACTA | 0.224
CCTGCCTA | -0.111
AGTTGTTG | -0.204
CAGAGCGG | -0.273
CCCGTGTA | -0.0132
AAGAAACG | 0.284
CCTGAGAA | -0.148
TCAGTCGA | 0.0318
CAAGACCA | -0.403
AAGGAGGC | -0.319
ATAGAATA | -0.094
GTCTGCTA | -0.03
CCCCCTCG | 0.12
ACTTCTGC | -0.0623
CATGACGC | -0.00544

Sequence | PBM E-score
ATTATGGG | -0.271
AAGATATA | 0.0923
CCTGTGTA | 0.00294
CTGCAACA | -0.0776
ATCTATCA | 0.0318
AGAGATAC | 0.0669
CCAAGAGG | -0.362
AGAGCAAA | -0.174
CAGGAGAG | -0.0937
AGGGTGTC | -0.149
GTACGTAC | 0.349
GTCATTCA | -0.121
GCAAAACA | -0.232
AATACTAT | -0.166
ACCCGTAA | 0.179
CGCGGGGA | 0.0295
CCCTCGAC | -0.0332
CGTCGGCC | -0.00808
ATGACAAG | -0.0717
GAGCCTTA | -0.0855
GACTTGGC | -0.155
ACGCAATG | -0.0846
CGGCCATA | 0.091
ATAGCACC | -0.111
CGCCATAG | -0.058

Sequence | PBM E-score
ATGTAAAG | -0.1
AGGTCTTA | 0.00054
CAGAGTCG | 0.0671
CAGCATAG | -0.174
GAGACCTC | -0.0652
CACGGTGA | -0.066
CTCGGCGC | 0.101
ACCTCGCA | 0.224
AACAGCAA | -0.162
CGCCAAGC | -0.143
ACACACGC | -0.0134
AACCGTGA | -0.0809
CTCAGAAA | -0.11
CTTACCCC | -0.219
ACTTGTTG | -0.0521
AGTACGCA | -0.0459
AAGAGACG | 0.0921
CAGACTAA | -0.0751
ATGTACCG | -0.0255
AAGGAGTG | -0.131
ACCAATAT | 0.132
CGGCTCTA | 0.0789
AAGATCGC | 0.096
CCGGGAAG | -0.27
CGATACAG | 0.13

Sequence | PBM E-score
CCAATTTC | 0.107
AGAGTATG | -0.0186
CAGTAGCC | -0.137
AAATCGCT | -0.0583
AGGTTAAC | 0.0561
GAACGAAA | 0.43
CATTGACG | -0.00128
CCGTAGCA | 0.165
CCAGTGGG | -0.292
ATAGAGTC | -0.0166
ACCTTTGC | -0.181
GGTACTTA | -0.167
ACACGTCC | -0.218
CCGTCCGA | 0.0141
GACAGACA | 0.114
AACATGTC | 0.0692
ATTGCGGC | -0.138
AGTTTATC | 0.0904
CTTTGCCA | -0.0873
CTGGAGGC | -0.281
ATTATCTG | 0.00684
ACCGCAAA | 0.185
